# Test results reported in PubChem BioAssay (NCATS).
# This list was built around the results that the source calls inconclusive (neither active nor inactive); the mix of calls is not that of the screen. No potency is given beside an inconclusive call; the fits are too rough. Activity calls are given as the source filed them. The call rests on the fitted dose curve; in most records, active means well fitted inhibition curve with a large enough effect; inconclusive means small, poorly fitted or top-dose-only effect; inactive means flat fitted curve, though single readings scatter.
# Molecular target: Fructose-bisphosphate aldolase (Giardia intestinalis (strain ATCC 50803 / WB clone C6)) (UniProt A8B2U2)
# Experiment: qHTS Assay for Inhibitors of Fructose-1,6-bisphosphate Aldolase from Giardia Lamblia: Primary screen confirmation (AID 2787); further: nearly all actives have a fitted effect of over 45% in size;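 on activity change, negative = inhibition: aldolase product measured through coupled diaphorase step turning resazurin into fluorescent resorufin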
# Conditions: purified Giardia aldolase enzyme activity; series mostly up to 57.5 µM; activity change, negative = inhibition: at the top concentration
# Outline: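 Confirmation of primary hits by qHTS up to 57.5 uM final compound. Enzyme at 40 nM with 30 uM ZnCl2, 10 min RT pre-incubation, then substrate/coupling/resorufin-forming detection mix for 20 min before fluorescence read at 525/598 nm.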
# On the % scale 0 is the no-effect control and ±100 the full control effect; potency means the concentration at half of the fitted maximal effect; tags describe the fitted curve by direction and shape.
# Sequence of UniProt A8B2U2 (A8B2U2 whole entry, looked up): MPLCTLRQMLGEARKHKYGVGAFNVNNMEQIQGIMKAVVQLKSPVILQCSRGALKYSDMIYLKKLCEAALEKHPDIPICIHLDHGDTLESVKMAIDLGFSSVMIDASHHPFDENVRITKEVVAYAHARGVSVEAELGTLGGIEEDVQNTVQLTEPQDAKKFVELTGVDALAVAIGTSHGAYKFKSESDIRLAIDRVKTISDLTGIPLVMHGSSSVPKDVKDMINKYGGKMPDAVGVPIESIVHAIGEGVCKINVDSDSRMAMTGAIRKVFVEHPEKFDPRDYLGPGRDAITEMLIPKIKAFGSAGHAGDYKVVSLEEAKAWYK
Compound,Potency,"activity change, negative = inhibition"
CCOc1ccccc1CN1CCC(N2CCOCC2)CC1,"inconclusive [inhibitor, single point]",
Cc1cc(NC(=O)CSc2nnc(C3COc4ccccc4O3)n2N)no1 (stereo not given),,inactive: -6.27%
CCN(Cc1nc2ccccc2c(=O)[nH]1)Cc1nc2cc(OC)c(OC)cc2c(=O)[nH]1,"inconclusive [inhibitor, single point]",
COc1cccc(OC)c1C(=O)Nc1sc2c(c1C(N)=O)CCN(Cc1ccccc1)C2,,inactive: -1.72%
CCOC(=O)Cc1csc(NC(=O)CN2CCOCC2)n1,,inactive: 4.09%
CCOc1ccc2[nH]c(S(=O)(=O)CC)nc2c1Cl,,inactive: -10.5%
CN(C)S(=O)(=O)c1ccc(NC(=S)NC(=O)c2cccs2)cc1,,inactive: 6.95%
CN1CCN(C(c2cccnc2)c2ccc3cccnc3c2O)CC1 (stereo not given),"inconclusive [inhibitor, full curve]",
OCCN(CCO)c1ccc2ccccc2c1,active: 3.98 µM,
Cc1ccccc1CN1CCN(C(=O)c2ccco2)CC1,,inactive: -4.99%
CCN(CC(=O)Nc1cccc(OC)c1)CC(=O)Nc1ccc(C)cc1Cl,,inactive: 0.0092%
Cc1nnc(NC(=O)CN2CCN(Cc3ccc(F)cc3Cl)CC2)s1,,inactive: 6.08%
Cc1cccc(NC(=O)CSc2n[nH]c(-c3ccncc3)n2)c1C,,inactive: 5.92%
Cc1cc(Cl)ccc1N=c1ssnc1Cl,,inactive: -1.04%
O=C(NC1CCCCC1)c1cccnc1C(=O)O,,inactive: 6.23%
CC1CCN(S(=O)(=O)c2nnc(NC(=O)c3cccc([N+](=O)[O-])c3)s2)CC1,active: 15.8 µM,
Cc1ccc(CN2CCN(C(=O)c3ccncc3)CC2)cc1,,inactive: 6.09%
Cc1ccc(-c2n[nH]c(=S)n2/N=C/c2c(C)[nH]n(-c3ccccc3)c2=O)cc1,"inconclusive [inhibitor, single point]",
CC1=NN(C(N)=S)C(C)(C)C1,,inactive: 1.9%
COc1ccc(OCC(=O)NNC(=O)c2ccccn2)cc1,,inactive: -0.84%

Compound,Potency,"activity change, negative = inhibition"
O=C(c1cccc(Cl)c1)N1CCN(CCCc2ccccc2)CC1,,inactive: 0.209%
O=c1cc2oc3cc(O)c(O)cc3c(-c3ccccc3O)c-2cc1O,"inconclusive [inhibitor, full curve, poor fit]",
CN1CCN(C(=S)NC(=O)c2ccc(-c3ccccc3)cc2)CC1,,inactive: 5.9%
Nn1c(SCC(=O)Nc2cccc(C(F)(F)F)c2)nncc1=O,,inactive: -4.3%
Cc1[nH]c2ccccc2c1/C=N/Nc1nncn1N,"inconclusive [inhibitor, partial curve]",
CC(C(=O)NC1C(=O)N2C(C(=O)O)=C(CSc3nnnn3C)CSC12)n1cc(Cl)cn1 (stereo not given),,inactive: 1.34%
CC(/C=N/n1c(-c2cc(C)[nH]n2)n[nH]c1=S)=C\c1ccco1,"inconclusive [inhibitor, single point]",
CC(C)NCC(=O)Nc1c2c(nc3ccccc13)CCC2,,inactive: 2.27%
CCOc1ccccc1NS(=O)(=O)c1c(C)noc1C,"inconclusive [inhibitor, partial curve]",
C=CCNC(=S)/C(=C(\[O-])c1ccc(Cl)cc1)[n+]1ccccc1,,inactive: -1.65%
Cc1ccc(N=Nc2c(O)ccc3n[nH]nc23)cc1,"inconclusive [inhibitor, partial curve, poor fit]",
O=C(O)c1ccc(NC(=S)NC(=O)c2cccnc2)cc1,,inactive: 7.63%
CCn1c(CSc2nnc(-c3cccnc3)n2-c2ccccc2C)nc2cc(C(=O)O)ccc21,"inconclusive [inhibitor, partial curve]",
CN(Cc1ccco1)S(=O)(=O)c1nnc(NC(=O)c2ccc(F)cc2)s1,"inconclusive [inhibitor, partial curve]",
[NH-]c1ncnc2c1N=C[N+]2=CC=CCO,,inactive: 2.23%
COc1ccc(N=Cc2cc(Cc3ccccc3Cl)cc([N+](=O)[O-])c2O)cc1OC,"inconclusive [inhibitor, partial curve]",
S=C(Nc1cccc(Cl)c1)Nc1cccc2cnccc12,"inconclusive [inhibitor, partial curve]",
CCS(=O)(=O)N1CCN(Cc2ccncc2)CC1,,inactive: 7.47%
COc1ccc(OC)c(Nc2nc(-c3ccc(O)c(O)c3)cs2)c1,"inconclusive [inhibitor, partial curve]",
C/C(=N\NC(N)=S)c1ccccc1,,inactive: 5.53%
